Measurements: PubChem BioAssay AID504339 (National Center for Advancing Translational Sciences (NCATS), 2011)
Hit rate of the full screen: of about 390,000 compounds, about 17,000 (4.4%) were called active. Inconclusive results, whose numbers are uncertain, are shown with a selection of clear calls. Calls follow the shape of the dose curve; as a rule, active = well fitted inhibition curve with a large enough effect; inconclusive = small, poorly fitted or top-dose-only effect; inactive = no such curve, though single readings can be large or run the other way. Potencies beside an inconclusive call are fits to weak or partial responses and may not hold up.

Molecular target: Lysine-specific demethylase 4A (Homo sapiens) (UniProt O75164)
Test: qHTS Assay for Inhibitors of JMJD2A-Tudor Domain; also: nearly all actives have a fitted effect of over 50% in size
Details: AlphaScreen JMJD2A-Tudor / H3K4me3 peptide binding; activity change, negative = inhibition: at 114 µM (top of the series)
% is scaled to controls: 0 for no effect and ±100 for the full control effect; potency is read from the fitted curve at half-maximal effect; tags tell the direction and shape of the fitted curve.

Sequence of UniProt O75164 (O75164 whole entry, looked up, the tested form may be a part): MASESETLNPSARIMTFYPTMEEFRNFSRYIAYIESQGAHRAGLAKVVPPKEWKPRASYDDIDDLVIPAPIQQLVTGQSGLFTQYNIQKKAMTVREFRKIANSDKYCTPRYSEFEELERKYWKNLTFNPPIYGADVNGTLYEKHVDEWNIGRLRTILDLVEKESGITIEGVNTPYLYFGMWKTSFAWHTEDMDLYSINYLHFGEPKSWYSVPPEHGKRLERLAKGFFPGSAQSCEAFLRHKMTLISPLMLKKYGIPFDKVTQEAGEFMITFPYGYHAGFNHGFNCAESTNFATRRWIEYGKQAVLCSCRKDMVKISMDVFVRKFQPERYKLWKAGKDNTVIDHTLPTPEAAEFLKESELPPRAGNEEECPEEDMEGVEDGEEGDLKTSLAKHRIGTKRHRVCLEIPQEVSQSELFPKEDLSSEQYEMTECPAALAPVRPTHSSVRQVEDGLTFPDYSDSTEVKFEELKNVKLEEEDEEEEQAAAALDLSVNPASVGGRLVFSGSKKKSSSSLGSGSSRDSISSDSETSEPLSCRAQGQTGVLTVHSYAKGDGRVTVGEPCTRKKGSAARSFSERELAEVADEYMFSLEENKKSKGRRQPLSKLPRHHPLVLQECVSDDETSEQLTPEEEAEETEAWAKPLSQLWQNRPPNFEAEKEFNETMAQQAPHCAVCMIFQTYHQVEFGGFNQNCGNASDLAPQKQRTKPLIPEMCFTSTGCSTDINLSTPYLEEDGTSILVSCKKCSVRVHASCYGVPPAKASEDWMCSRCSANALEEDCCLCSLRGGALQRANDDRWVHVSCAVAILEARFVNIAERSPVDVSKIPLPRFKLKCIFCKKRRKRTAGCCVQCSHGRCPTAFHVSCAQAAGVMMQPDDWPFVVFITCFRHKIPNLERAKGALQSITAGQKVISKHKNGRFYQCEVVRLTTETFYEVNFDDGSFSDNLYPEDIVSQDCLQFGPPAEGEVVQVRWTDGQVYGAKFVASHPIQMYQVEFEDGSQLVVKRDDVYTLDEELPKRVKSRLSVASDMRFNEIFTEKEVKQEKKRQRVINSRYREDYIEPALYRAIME

Potency, active:
CCOc1ccc(S(=O)(=O)NCC(c2ccc(N(C)C)cc2)N2CCc3ccccc32)cc1 (configuration not stated) 12.6 µM, c1nc(NCC2CCCO2)c2ccc(-c3ccc4c(c3)OCO4)cc2n1 (configuration not stated) 79.4 µM, O=[N+]([O-])c1cc(-n2cccc2)ccc1N1CCOCC1 50.1 µM, CCOC(=O)c1ccc(NC(=O)c2c(NCc3cc(OC)c(OC)cc3OC)sc3c2CCCC3)cc1 25.1 µM, CCN(Cc1ccccc1)c1ccc(N=Nc2nn(C)c(C)c2[N+](=O)[O-])cc1 6.31 µM, Cn1c(=O)c2c(nc(SCc3cccnc3)n2Cc2ccccc2)n(C)c1=O 35.5 µM, COc1ccc(C2(C)CC(C)(C)Nc3ccccc32)cc1 (configuration not stated) 50.1 µM, CC1C=CC(C)C(C(=O)O)C1C(=O)O (configuration not stated) 44.7 µM, CN(C)CCCN1c2ccc([N+](=O)[O-])cc2CCc2cc([N+](=O)[O-])ccc21 17.8 µM, CSc1ccc(C=NNc2ccc(S(=O)(=O)Nc3ccccc3C(=O)O)cc2[N+](=O)[O-])cc1 20 µM

Potency, inconclusive:
COc1cc(C(=O)NCC(=O)N/N=C/c2ccccn2)cc(OC)c1OC 3.55 µM [inhibitor, full curve], COc1cc(Cl)ccc1NC(=S)N(CCCN1CCOCC1)Cc1cn(C)c2ccccc12 28.2 µM [inhibitor, full curve], N=c1c(S(=O)(=O)c2ccccc2)cc2c(=O)n3ccccc3nc2n1C1CCCCC1 15.8 µM [inhibitor, full curve], CC[C@@H]1C=C(C(=O)O)[C@H](c2ccc(Cl)c(Cl)c2)N1S(=O)(=O)c1ccc(C)cc1 89.1 µM [inhibitor, single point], CCOc1ccc(NC(=O)CC2C(=O)N(c3ccc(C)cc3)C(=O)N2Cc2ccc(OC)cc2)cc1 (configuration not stated) 11.2 µM [inhibitor, full curve, poor fit], CCOC(=O)c1c(NC(=O)C(C)N2CCN(C(=O)c3ccco3)CC2)sc2c1CCCC2 (configuration not stated) 25.1 µM [inhibitor, full curve], Cc1ccc(S(=O)(=O)n2nc(OC(=O)c3c(-c4ccccc4Cl)noc3C)cc2N)cc1 3.55 µM [inhibitor, single point], CC(OC(=O)CCC1CCCC1)C(=O)Nc1ccccc1[N+](=O)[O-] (configuration not stated) 31.6 µM [inhibitor, full curve], O=C(/C=C/c1cccnc1)c1cccc(O)c1 89.1 µM [inhibitor, single point], O=c1[nH]cc(C(F)(F)F)cc1NS(=O)(=O)c1ccc([N+](=O)[O-])cc1 17.8 µM [inhibitor, full curve, poor fit], Cc1c(C(=O)Nc2cc(S(=O)(=O)N3CCOCC3)ccc2N2CCN(C)CC2)oc2ccccc12 44.7 µM [inhibitor, partial curve], CCOc1ccc(Nc2nc(Cc3nnc(SCC(=O)c4ccc(C)c(C)c4)o3)cs2)cc1 8.91 µM [inhibitor, full curve], CC1CCc2c(sc(NC(=O)c3ccc(-c4ccccc4[N+](=O)[O-])o3)c2C#N)C1 (configuration not stated) 31.6 µM [inhibitor, full curve, poor fit], CCN1CCN(c2nc(Nc3ccc(OC)cc3)nc(N)c2[N+](=O)[O-])CC1 15.8 µM [inhibitor, full curve, poor fit], COc1ccc(Cl)cc1NC(=O)CSc1nc(NS(=O)(=O)c2ccccc2)cc(=O)[nH]1 20 µM [inhibitor, partial curve, poor fit], CN(C)c1ccc(-c2nnn(Cc3ccccc3Br)n2)cc1 31.6 µM [inhibitor, partial curve], COc1ccc(-n2cc(-c3ccccc3)c3c(NCCc4ccc(OC)c(OC)c4)ncnc32)cc1 35.5 µM [inhibitor, partial curve], COc1cccc(Cl)c1NC(=O)N1CCc2c([nH]c3ccccc23)C1C(F)(F)F (configuration not stated) 2.51 µM [inhibitor, full curve, poor fit], CN(CCCNC(=O)c1cn(C)c2ccc(S(=O)(=O)N(C)C)cc2c1=O)c1ccccc1 35.5 µM [inhibitor, partial curve], CCOc1cccc(C(=O)NC(=S)Nc2ccc3c(c2)OCCO3)c1 25.1 µM [inhibitor, full curve], O=C(NC(=S)Nc1ccc(N2CCOCC2)cc1)c1cccs1 22.4 µM [inhibitor, full curve, poor fit], Cc1cc(N/N=C/c2cccc(Cl)c2)nc(NCc2ccccc2)n1 56.2 µM [inhibitor, partial curve], Cc1[nH]n(-c2ccccc2)c(=O)c1C(c1ccc(O)c([N+](=O)[O-])c1)c1c(C)[nH]n(-c2ccccc2)c1=O 50.1 µM [inhibitor, partial curve], NC(=O)Cn1cnc2c(nnn2-c2ccc(F)cc2)c1=O 39.8 µM [inhibitor, single point], COc1ccc(N2C(=O)[C@@H]3[C@H](C2=O)[C@H]2c4ccccc4C=CN2[C@@H]3C(C)=O)cc1 70.8 µM [inhibitor, single point], O=C(CCc1nc2sc3c(c2c(=O)[nH]1)CCCC3)Nc1cccc(Cl)c1 39.8 µM [inhibitor, partial curve], N#C/C(=C\c1ccc(-c2ccc([N+](=O)[O-])cc2Br)o1)C(=O)N1CCN(c2ccccc2)CC1 10 µM [inhibitor, full curve], Cc1ccccc1C(=O)NCC(=O)NNC(=S)NC(=O)c1ccccc1C 35.5 µM [inhibitor, single point], Oc1ccc(N=Nc2n[nH]c(-c3ccccc3)n2)cc1 39.8 µM [inhibitor, partial curve], Oc1c(N=NC(=S)Nc2ccccc2F)c2ccccc2n1Cc1ccc(F)cc1 7.08 µM [inhibitor, full curve], C=CCOc1cccc(C(=O)N2CCCC(Nc3ccc4c(c3)OCCO4)C2)c1 (configuration not stated) 44.7 µM [inhibitor, partial curve], Cc1ccc(S(=O)(=O)Nc2ccc3c(c2)CC(=O)N([C@H](C)CO)C[C@H](C)[C@H](CN(C)Cc2ccc4c(c2)OCO4)O3)cc1 44.7 µM [inhibitor, partial curve], CCOC(=O)C1C(=O)N(C(=O)c2cncc(Br)c2)CC1c1ccccc1 (configuration not stated) 3.55 µM [inhibitor, single point], CC(C)Cn1c(N)c(C(=O)COC(=O)C2Cc3ccccc3CN2S(C)(=O)=O)c(=O)n(C)c1=O (configuration not stated) 35.5 µM [inhibitor, full curve, poor fit], O=[N+]([O-])c1cccc(NC(=S)N2CCc3ccccc32)c1 50.1 µM [inhibitor, partial curve], Cc1cccc(N2CCN(C(=O)c3nn(C)c4c3CS(=O)(=O)c3ccccc3-4)CC2C)c1 (configuration not stated) 63.1 µM [inhibitor, partial curve], O=C(N/N=C\c1ccc(OC(=O)c2cccs2)cc1)c1ccc(Cl)cc1 39.8 µM [inhibitor, partial curve], Cc1cc(C)c2c(=N)c3ccccc3n(CCCCCCCCn3c4ccccc4c(=N)c4c(C)cc(C)nc43)c2n1 100 µM [inhibitor, single point], O=C(c1ccccc1-c1ncc[nH]1)N1CCc2c([nH]c3ccccc23)C1c1ccccn1 (configuration not stated) 56.2 µM [inhibitor, partial curve]

Activity change, negative = inhibition, inactive:
O=C(COC(=O)c1ccc(O)cc1O)Nc1ncc(Cl)cc1Cl -18.6%, CCOC(=O)CC1=C(C(=O)OCC)C(c2ccc(OC)c(OC)c2)C(C#N)=C(N)O1 (configuration not stated) -22.5%, CCCc1nc(SCC(=O)N2CCOCC2)c2c(C)c(C)sc2n1 -11.6%, COC(=O)C(NS(=O)(=O)c1ccc(C)cc1)c1ccccc1 (configuration not stated) -2.08%, CCC(=O)N1CCc2cc(Br)cc(S(=O)(=O)N(CC)Cc3ccccc3)c21 6.14%, COC(=O)c1ccc(CN2CCN(CC=C(C)C)C(CCO)C2)cc1 (configuration not stated) 5.5%, O=C(O)c1ccc(S(=O)(=O)c2ccc([N+](=O)[O-])cc2[N+](=O)[O-])cc1 -18.9%, COCCNC(=O)c1ccc(N2CCCCC2)c(NS(=O)(=O)c2ccc(C)cc2)c1 -19.6%, Cc1nc2ccccc2c(=O)n1-c1cccc(NC(=O)c2cccs2)c1 -15.3%, COC(=O)c1ccccc1Nc1ccccc1 131%, CC(C)c1ccc(NC(=O)C2CCCN(S(=O)(=O)c3ccc4[nH]c(=O)ccc4c3)C2)cc1 (configuration not stated) 3.3%, Cc1cccc(C(=O)Nc2ccccc2C(=O)OCc2cc(=O)n3nc(C4CC4)sc3n2)c1 -2.65%, Cc1nc2ccc(S(=O)(=O)NC(C(=O)NCc3ccc(Cl)cc3)C(C)C)cc2s1 (configuration not stated) -4.64%, Cc1ccc(OCC(=O)Nc2ccc(S(=O)(=O)N(Cc3ccccc3)c3ccccc3)cc2)cc1 -7.28%, COc1ccc(-c2csc3ncnc(Cl)c23)cc1 -5.26%, Cc1cnc(NC(=O)/C=C/c2ccc(Br)o2)s1 -25.4%, CC(=O)NC1=NN(C(C)=O)C(C)(c2ccccc2)S1 (configuration not stated) -1.69%, O=C1COc2ccc(C(=O)COc3ccc([N+](=O)[O-])cc3)cc2N1 -15.5%
